This note sets out measurements from ChEMBL document CHEMBL4888484, “Replenishing the malaria drug discovery pipeline: Screening and hit evaluation of the MMV Hit Generation Library 1 (HGL1) against asexual blood stage Plasmodium falciparum ,using a nano luciferase reporter read-out” (2022).

About 540 (0.36%) of roughly 150,000 compounds showed an effect of 50% or more. Some of the results follow.

The assay deals with Plasmodium falciparum. Briefly: Primary screen in NF54 nanoGlo assay, in single point, at 2uM, 72h; a lower Z score goes with more inhibition. Format: functional, Erythrocyte. The following applies: timepoint 72 hour.
In general, % Inhibition refers to the change of the read-out against control, counted positive when it falls. Take `COc1ccc(N(CC(=O)NCC(=O)Nc2cc(C)ccc2OC)C(C)C)cc1F`: the “% Inhibition” value was -5% and the Z score is recorded as 0.78.

Consider `O=C1CC[C@H](CN2CC3CC2(C(F)(F)F)C3)CCN1`, for which the “% Inhibition” value was -2% and the Z score is recorded as 0.2.

Turning to `CN1CCCN(C[C@H](O)COCc2ccc3c(c2)OCO3)c2cc(F)ccc21`, the “% Inhibition” value was -4% and the Z score was 0.5.

For `O=C1NC2(CCCC2)C(=O)N1CCc1nc(C2(c3ccccc3)CCC2)no1`, the “% Inhibition” value was -16% and the Z score stood at 1.61.

Consider `O=C(c1c(C(F)(F)F)ccc(Cl)c1F)N1CCN(c2nccc(-c3ccco3)n2)CC1`, for which the “% Inhibition” value was -11% and the Z score is recorded as 1.43.

On to `CC(C)(C)OC(=O)Cc1ccccc1N`, for which the “% Inhibition” value was determined as 1% and the Z score was -0.15.

Consider `O=C(Nc1ccncc1F)NC1CCC2CCCC2C1` (stereo not given), for which the “% Inhibition” value was -2% and the Z score is 0.42.

In the case of `CCOc1ccnc(N2CCC3(CC2)CC(=O)NC(=O)C3)n1`, the “% Inhibition” value is given as -7% and the Z score is given as 0.86.

For `O=C(NC1CCC2CCCC2C1)c1cncnc1C1CC1` (stereo not given), the “% Inhibition” value worked out at 29% and the Z score is recorded as -3.32.

On to `COc1cc(C(=O)N2CC[C@]3(OC)CC[C@@H](NC(=O)C4CCC4)C[C@H]23)ccn1`, for which the “% Inhibition” value turned out to be 1% and the Z score is -0.08.

`CC(C)(C)c1cc(CNC(=O)[C@H](O)c2cccc(Cl)c2)[nH]n1`: the “% Inhibition” value is listed as -4% and the Z score was 0.85.

On to `CN(Cc1ncnn1C)C(=O)c1cc(F)cc(Cl)c1O`, for which the “% Inhibition” value is given as 27% and the Z score is recorded as -3.07.

As to `Cc1nc(Cn2ccc(-c3cccc(-c4ccc(N(C)C)nn4)c3)n2)cs1`, the “% Inhibition” value was -15% and the Z score was determined as 2.32.

As to `CC(C)c1nnc(NC(=O)CC[C@H]2NC(=O)c3ccccc3NC2=O)s1`, the “% Inhibition” value is 7% and the Z score is recorded as -0.86.

Turning to `Cc1cc(CN(C)c2ncc(Cl)cn2)no1`, the “% Inhibition” value is -3% and the Z score worked out at 0.39.

As to `CC(=O)N1CCN(C(=O)c2cnn3c(-c4ccc(Cl)cc4)ccnc23)CC1`, the “% Inhibition” value is on record as -10% and the Z score is listed as 1.63.

Turning to `O=C(C[C@H]1CCS(=O)(=O)C1)Nc1ccc2c(c1)OCCO2`, the “% Inhibition” value is -10% and the Z score was determined as 1.4.

Consider `O=C(C[C@H]1C(=O)NCCN1Cc1cccnc1)NCCOc1ccccc1`, for which the “% Inhibition” value is 10% and the Z score was -1.35.

As to `Cc1ccccc1NC(=O)N1C[C@H](O)[C@@H](N(C)Cc2cnn(C)c2)C1`, the “% Inhibition” value was -3% and the Z score amounted to 0.37.

In the case of `CCn1cc(-c2nc(C)c(C(=O)NCc3ccccn3)s2)c2cccnc21`, the “% Inhibition” value is listed as -7% and the Z score is reported as 1.26.

On to `NC(=O)c1ccc(-c2ccccc2Oc2ccccc2)nc1`, for which the “% Inhibition” value is reported as -6% and the Z score was 0.81.

On to `Cc1noc(C)c1CC(=O)N1CC(F)(F)C[C@H]1c1nncn1CC1CC1`, for which the “% Inhibition” value was -7% and the Z score is listed as 0.91.

Regarding `C[C@@H](C(=O)Nc1ncccn1)N(C)Cc1cc(Cl)cc(Cl)c1`, the “% Inhibition” value is -46% and the Z score is 5.44.

As for `O=C1CC[C@H](C(=O)N2CCN(c3ncccn3)CC2)CN1`, the “% Inhibition” value is 34% and the Z score is recorded as -3.87.

`CC(C)n1nnnc1-c1ccc(NC(=O)[C@@H]2CCCO2)cc1F`: the “% Inhibition” value is recorded as 10% and the Z score was -1.05.

For `CCOCCCNC(=O)C1CCN(c2nnc(C)c3c(C)n(-c4ccc(OC)cc4)nc23)CC1`, the “% Inhibition” value was found to be 6% and the Z score is -0.75.

In the case of `Cc1cccc(NCC(=O)Nc2ncc(Cc3c(Cl)cccc3Cl)s2)c1`, the “% Inhibition” value was found to be 29% and the Z score is given as -3.25.

Consider `CC(NC(=O)NCCC1Cc2ccccc2C1)C1CN(C)CCO1` (stereo not given), for which the “% Inhibition” value is listed as -2% and the Z score came to 0.42.

As to `Cc1nc2c([nH]1)CN(CC1(C)CCOCC1)CC2`, the “% Inhibition” value is on record as -6% and the Z score was 1.

With `CN(C)C(=O)N1CCC(CNC(=O)Cc2ccsc2)CC1`, the “% Inhibition” value is recorded as 3% and the Z score is given as -0.36.

On to `O=C(NCc1ccncc1)c1nn(-c2ccccc2F)c(=O)n(Cc2ccc(C(F)(F)F)cc2)c1=O`, for which the “% Inhibition” value is on record as 5% and the Z score is -0.6.

Consider `CC(C)Cc1cc(C(=O)N2CCc3nc(N)sc3C2)on1`, for which the “% Inhibition” value is -7% and the Z score came to 1.3.

Consider `Cc1nn(-c2ccc(F)cc2)c2[nH]nc(NC(=O)Cc3ccon3)c12`, for which the “% Inhibition” value is -7% and the Z score stood at 0.73.

On to `Cc1ccc(C(=O)N2CC3(C)CN(C(=O)c4ccc(C)cc4)CC(c4ccccc4)(C2)C3=O)cc1`, for which the “% Inhibition” value worked out at 4% and the Z score is -0.72.

As to `Cc1cnccc1NCCNc1cc([C@H]2CCOC2)ncn1`, the “% Inhibition” value was -7% and the Z score is on record as 1.07.

As for `Cc1cc(NC(=O)[C@@H]2CCCN2C(=O)c2cccs2)nc(-c2ccccc2)n1`, the “% Inhibition” value is -24% and the Z score came out at 2.55.

For the compound `Cn1ccc(C(=O)N2CCO[C@H]2C(F)(F)F)n1`, the “% Inhibition” value came out at 10% and the Z score is on record as -1.25.

For the compound `C[C@]1(C(=O)Nc2cccnc2)CC1(F)F`, the “% Inhibition” value is given as -10% and the Z score is 1.36.

`CCN(CC(=O)Nc1c(Cl)cccc1Cl)c1ncnc2onc(C)c12`: the “% Inhibition” value is -9% and the Z score was 1.05.

With `O=C1NN=C2CCC34CC12CCC3=NNC4=O`, the “% Inhibition” value turned out to be 2% and the Z score was -0.18.

For the compound `Cc1cc(C(=O)N[C@@H](C)Cc2cccs2)no1`, the “% Inhibition” value is recorded as -1% and the Z score was found to be 0.25.

Take `CCN1CCN(c2c(CN(C(=O)Nc3cccc(F)c3)C(C)C)c(C)nn2-c2cccc(F)c2)CC1`: the “% Inhibition” value was 3% and the Z score is recorded as -0.41.

As to `COC1(CS(=O)(=O)Nc2cc(N(C)C)ccc2C#N)CCCCC1`, the “% Inhibition” value was -16% and the Z score was 2.47.

With `Cc1nc(-c2cc(S(=O)(=O)Nc3ccc(C)c(C)c3)c(C)s2)cs1`, the “% Inhibition” value was -3% and the Z score is 0.4.

Turning to `Cc1noc(C)c1CS(=O)(=O)Cc1ccn(C2CCCC2)n1`, the “% Inhibition” value is -11% and the Z score came to 1.07.

As to `CC(C)Cn1ncnc1CN[C@@H](C)c1cnn(C)c1`, the “% Inhibition” value was -3% and the Z score worked out at 0.39.

As to `COCCCn1c(=O)c2ccccc2n(CC(=O)N2CCCc3ccccc32)c1=O`, the “% Inhibition” value worked out at 35% and the Z score was -3.98.

Regarding `Cc1ccccc1NC(=O)COC(c1ccccc1)c1ccccc1`, the “% Inhibition” value was -7% and the Z score turned out to be 1.01.

With `CCCc1sc(NC(=O)c2sc(C)nc2C)nc1C(=O)OC`, the “% Inhibition” value is recorded as -14% and the Z score is listed as 1.8.

Take `N#Cc1ccccc1-c1cccc2cccnc12`: the “% Inhibition” value was -16% and the Z score came to 2.12.

Consider `O=C1CO[C@H]2CCN(c3ccnc4ccsc34)C[C@@H]2N1`, for which the “% Inhibition” value is given as -8% and the Z score turned out to be 1.18.

Turning to `O=c1c2cc(F)c(F)cc2ncn1CCN1CCOCC1`, the “% Inhibition” value is -5% and the Z score is 0.97.

Regarding `Cc1nnc(CNC(=O)C2CN(S(C)(=O)=O)C2)o1`, the “% Inhibition” value was -9% and the Z score is 1.38.

Take `Cc1cc(C)n(C2(c3ccccc3)CC(C)C(=O)O2)n1` (stereo not given): the “% Inhibition” value is on record as -3% and the Z score is recorded as 0.47.

Consider `COCC(C)(C)NC(=O)Cc1cccc(N)c1`, for which the “% Inhibition” value is -30% and the Z score turned out to be 3.52.
